Test results published in PubChem BioAssay AID686978 (National Center for Advancing Translational Sciences (NCATS), 2013).
Values joined by “and” are separate entries in the source; they are usually repeats but may differ in a detail not shown here. Equal entries are not always repeated. In all, about 420,000 compounds went through this assay and about 64,000 (15%) were called active. Inconclusive results, whose numbers are uncertain, are shown with a selection of clear calls. Calls come from the whole dose curve; as a rule, active = well fitted inhibition curve with a large enough effect; inconclusive = small, poorly fitted or top-dose-only effect; inactive = flat fitted curve, though single readings scatter. A potency beside an inconclusive call is a rough fit, not a confirmed value.

Test: qHTS for Inhibitors of human tyrosyl-DNA phosphodiesterase 1 (TDP1): qHTS in cells in absence of CPT; note: nearly all actives have a fitted effect of over 55% in size
Conditions: DT40 Tdp1-/- hTDP1 cells, no CPT, ATP luminescence, 48 h; activity change, negative = growth inhibition: at 46.2 µM (top of the series) unless noted
How it was run: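 Readout: luminescence from CellTiter-Glo after 30 min in the dark at RT. Cells: DT40 Tdp1-/- with stable hTDP1, 400/well. Exposure: compounds alone, ≥48 hr, 37 °C.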
% is set by controls: 0 for no effect and ±100 for the full control effect; potency is the fitted concentration of half-maximal effect; tags give direction and shape of the fitted curve.

SMILES | Potency | activity change, negative = growth inhibition
CCCCCCc1ccc(N2C[C@H](C)[C@@H](CC(=O)NCc3ccccc3)C2=O)cc1 | inconclusive: 29.1 µM [inhibitor, single point] | –
O=C(CCCn1c(SCC(=O)c2ccc(F)cc2)nc2ccccc2c1=O)NCc1ccco1 | inconclusive: 8.2 µM [inhibitor, partial curve] | –
COCC(C)NC(=O)c1cc2c(ccc3ccccc32)oc1=O (configuration not stated) | inconclusive: 29.1 µM [inhibitor, single point] | –
Cc1ccccc1NC(=O)N1CCC(NC(=O)C2CCCCC2)CC1 | inactive | –
CC(C)C(c1nnnn1C(C)(C)C)N1CCOCC1 (configuration not stated) | inactive | –
Cc1ccc(Cn2c(C)c(CNCCCc3ccccc3)c(C(=O)O)c2C)cc1 | inconclusive: 25.9 µM [inhibitor, single point] | –
Cc1cc(C=O)c(C)n1-c1cccc(C(=O)O)c1 | inactive | –
Cc1cc(/N=C/C=C2\N(C)c3ccccc3C2(C)C)n(CCC#N)n1 | active: 4.61 µM | –
CCCCCCCOc1ccc(OC(=O)c2ccncc2)cc1 | active: 10.3 µM | –
CCc1ccc(NC(=O)CCCN2C(=S)NC(C)(C)CC2C)cc1 (configuration not stated) | inconclusive: 25.9 µM [inhibitor, single point] | –
COc1ccc(OC)c(-n2nnnc2SCC(=O)Nc2cc(C)ccc2OC)c1 | inconclusive: 29.1 µM [inhibitor, single point] | –
CC(Sc1nncn1-c1ccccc1)C(=O)Nc1cccc([N+](=O)[O-])c1 (configuration not stated) | inconclusive: 29.1 µM [inhibitor, single point] | –
Cc1ccc2nc(SCC(=O)Nc3cc([N+](=O)[O-])ccc3F)[nH]c2c1 | inconclusive: 29.1 µM [inhibitor, single point] | –
CSc1ccc(S(=O)(=O)N2c3ccccc3CC2C)cc1 (configuration not stated) | active: 20.6 µM | –
CCCCNC(=O)/C(=C\c1ccc([N+](=O)[O-])o1)NC(=O)c1ccccc1 | inconclusive: 18.4 µM [inhibitor, single point] | –
Cc1ccc(C2=NN(CCC(=O)NCc3ccc4c(c3)OCO4)C(=O)CC2)cc1 | inconclusive: 16.4 µM [inhibitor, single point] | –
CC1CCN(S(=O)(=O)c2ccc3c(c2)CCC(=O)N3CC(=O)Nc2cccc(C#N)c2)CC1 | inconclusive: 18.4 µM [inhibitor, single point] | –
COc1cccc(Cn2c(=O)cnc3cnc(Nc4ccccc4)nc32)c1 | inconclusive: 11.6 µM [inhibitor, partial curve, poor fit] | –
CCCCNC(=O)CSc1nnc(C)c2c(C)n(-c3ccccc3)nc12 | inconclusive: 29.1 µM [inhibitor, single point] | –
O=C1CC(c2ccc(O)c(O)c2)Oc2cc(O)cc(O)c21 (configuration not stated) | inactive and inconclusive: 29.1 µM [inhibitor, single point] | –
COc1ccccc1/C=N\Nc1cc(C)nc(-n2nc(C)cc2C)n1 | active: 5.17 µM | –
Cc1ccc(CNc2cccnc2)cc1 | inconclusive: 16.4 µM [inhibitor, single point] | –
COc1cccc(NC(=O)NCC2CCN(Cc3ccc(F)cc3)CC2)c1 | inactive | –
O=C(NCc1cccnc1)/C(=C/c1ccc([N+](=O)[O-])cc1)NC(=O)c1ccccc1 | inactive | –

SMILES | Potency | activity change, negative = growth inhibition
CCC1CN(C(=O)N2CCC(C(=O)NCc3ccccc3C)CC2)c2ccccc2O1 (configuration not stated) | active: 20.6 µM | –
COc1ccc(S(=O)(=O)Nc2cc3c4c(c2)CCN4C(=O)CC3)cc1 | inactive | –
Cc1ccc(-c2noc(CNC(=O)c3ccccc3)n2)cc1 | inconclusive: 18.4 µM [inhibitor, single point] | –
CCS(=O)(=O)c1ccc(C=NNc2nc3ccccc3o2)cc1 | active: 23.1 µM | –
CC(C)Cn1c(-c2ccc(C#N)cc2)nc2c1c(=O)[nH]c(=O)n2CC(C)C | inconclusive: 29.1 µM [inhibitor, single point] | –
Cc1cc(=O)n2[nH]c(C)c(-c3ccccc3)c2n1 | inconclusive: 23.1 µM [inhibitor, partial curve, poor fit] | –
CCCN1CCC(NC(=S)Nc2ccc(S(N)(=O)=O)cc2)CC1 | inactive | –
Nc1nc(Nc2ccccc2)nc(NC2CCCCC2)c1[N+](=O)[O-] | inconclusive: 23.1 µM [inhibitor, single point] | –
N#CCCn1c(=O)c(CCc2ccccc2)nc2cnc(Oc3cccc(Cl)c3)nc21 | inconclusive: 18.4 µM [inhibitor, single point] | –
COc1ccccc1NS(=O)(=O)c1ccc(C(=O)N2CCN(c3ccccc3)CC2)cc1 | inconclusive: 29.1 µM [inhibitor, single point] | –
CCN(CC)CCCN(C(=O)c1ccccc1C)c1nc(-c2ccc(OC)cc2)cs1 | active: 23.1 µM | –
Cc1cc(C(=O)N/N=C/c2sccc2C)no1 | inactive | –
O=C(CSc1ccc2nnc(-c3ccccn3)n2n1)Nc1ccccc1 | inactive | –
O=C(NCCCn1cccn1)c1cc(COc2ccccc2)on1 | inconclusive: 16.4 µM [inhibitor, partial curve] | –
O=C(NCc1ccccc1)c1ccc(CSc2nc3cccnc3n2Cc2ccccc2F)cc1 | active: 18.4 µM | –
CCc1ccc2c(CN3CCN(Cc4ccccc4)CC3)cc(=O)oc2c1 | inconclusive: 29.1 µM [inhibitor, single point] | –
O=C(CCN1CCN(S(=O)(=O)c2ccc(Br)cc2)CC1)Nc1ccccc1F | inactive | –
CS(=O)(=O)c1ccc(-c2cccc3c2OC(CNC(=O)c2ccnc(Cl)c2)C3)cc1 (configuration not stated) | inconclusive: 20.6 µM [inhibitor, single point] | –
O=C(Nc1ccccc1)c1cc(S(=O)(=O)NCc2ccncc2)ccc1Cl | active: 8.2 µM | –
CC(=O)NCCn1c(SCc2ccc(C)cc2)nc2ccccc2c1=O | active: 20.6 µM | –
COc1cccc(-c2ccc3ncnc(N(C)Cc4ccco4)c3c2)c1 | inconclusive: 20.6 µM [inhibitor, single point] | –
COc1ccc(/C=N/NC(=O)c2cccc(NC(C)=O)c2)c(OC)c1 | inactive | –
Cc1ccccc1CNC1CCCCC1 | inactive | –
CN1C(=O)NC(NC(=O)C2CCCCC2)(C(F)(F)F)C1=O (configuration not stated) | inactive | –

SMILES | Potency | activity change, negative = growth inhibition
O=C(NCCOCCn1c(=O)oc2ccccc21)Nc1ccc(F)cc1 | inconclusive: 18.4 µM [inhibitor, single point] | –
CCC(=O)N1CCN(c2ccc(NC(=O)c3ccc(N4CCOCC4)c([N+](=O)[O-])c3)cc2)CC1 | inconclusive: 20.6 µM [inhibitor, single point] | –
COc1ccc(COCC(O)CN(Cc2ccco2)Cc2ccccc2O)cc1 (configuration not stated) | inconclusive: 23.1 µM [inhibitor, single point] | –
CCc1cc2cc(C)ccc2nc1SCC(=O)NC1CCCC1 | inconclusive: 29.1 µM [inhibitor, single point] | –
CCN(CC)CCNC(=O)C(=O)NCC1OCCN1S(=O)(=O)c1ccc([N+](=O)[O-])cc1 (configuration not stated) | inactive | –
O=C1N/C(=N\S(=O)(=O)Cc2ccccc2)S/C1=C/c1cc([N+](=O)[O-])ccc1O | inactive | –
CCN(CC)c1ccc(/C=N/N2CCOCC2)c(O)c1 | – | inconclusive: -30.7% [inhibitor]
O=C(Nc1cccc(OC(F)(F)F)c1)C1Cc2c(-c3ccc4c(c3)OCO4)ccnc2O1 (configuration not stated) | active: 20.6 µM | –
COc1ccc(OC)c(/C=N/NC(=O)c2cccc3ccccc23)c1 | inconclusive: 25.9 µM [inhibitor, single point] | –
CCOc1ccccc1N1CCN(Cc2ccc(Br)s2)CC1 | inconclusive: 13 µM [inhibitor, single point] | –
COc1ccc(OCCNC(=O)c2ccc3nc(C)c(N(C)C(=O)CCc4ccccc4)n3c2)cc1 | inconclusive: 14.6 µM [inhibitor, partial curve, poor fit] | –
OC(COC(c1ccc(F)cc1)c1ccc(F)cc1)CN1CCCC1 (configuration not stated) | inconclusive: 32.6 µM [inhibitor, single point] | –
Cc1ccc(C)c(N2CCN(CCCNC(=O)CCn3c(=O)c4cccn4c4cccnc43)CC2)c1 | inconclusive: 25.9 µM [inhibitor, single point] | –
CCOc1ccc(N(C)S(=O)(=O)c2ccc(C)c(C(=O)OCC(=O)c3c[nH]c4ccccc34)c2)cc1 | inactive | –
CCC(C(=O)OC)(C(=O)OC)c1ccc([N+](=O)[O-])cc1 | inactive | –
Cc1cccc(-n2c(C)cc(C=C(C#N)C#N)c2C)c1 | inconclusive: 11.6 µM [inhibitor, partial curve] | –
CC1Cc2nc(SCC(=O)Nc3ccc4c(c3)OCO4)n(Cc3ccccc3)c(=O)c2S1 (configuration not stated) | inconclusive: 29.1 µM [inhibitor, single point] | –
COc1ccc(Nc2ncnc3ccc(Br)cc23)cc1OC | inconclusive: 18.4 µM [inhibitor, partial curve] | –
COc1ccc(OCC(=O)Nc2cccc(-c3nc4ccccc4s3)c2C)cc1 | inconclusive: 4.61 µM [inhibitor, full curve, poor fit] | –
COc1ccc(C(=O)N2CCOC2CNC(=O)C(=O)NCc2ccc(C)cc2)cc1 (configuration not stated) | inconclusive: 18.4 µM [inhibitor, single point] | –
N#CCC(=O)Nc1ccc(C(=O)OCC(=O)NNC(=O)c2cccs2)cc1 | inactive | –
COc1cc(/C=N/NC(=O)c2nc(-c3ccccc3)n(-c3ccccc3)n2)ccc1O | inactive | –
COC(=O)CN1C(=O)[C@H]2[C@@H](/C=C/c3ccccc3)N3C(=O)CN(Cc4ccccc4)C(=O)[C@@]3(Cc3ccccc3)[C@H]2C1=O | inactive | –
CCOC(=O)C1=C(CSCc2ccccc2)NC(=O)NC1c1cc(C)ccc1C (configuration not stated) | inconclusive: 29.1 µM [inhibitor, single point] | –
